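Grown in 96-well plates, cells were treated for 48 hours with each compound at five concentrations. Insufficient inhibition: endpoint recorded as highest concentration tested. GI50 is the concentration that inhibits growth by half.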 Calls of active or inactive are those of the source. Rule as the data show it: active = GI50 up to about 1.1 µM and inactive = higher.

We go through 82 compounds from ChEMBL document CHEMBL1201862, “PubChem BioAssay data set” (2004).

For this assay, the system named is NCI-H322M. Nature of the assay: NCI anticancer screen, dose series, 48 h.
As for `COc1ccc2c(c1)C(=O)CCc1cc(OC)c(OC)c(OC)c1-2`, the GI50 was active: 0.0533 µM.
Then `Cc1cc(S(=O)(=O)Nc2n[nH]c(Nc3ccccc3)n2)c(S)cc1Cl`, with inactive: > 10 µM.
For `CCOC(=O)Nc1nc(-c2ccccc2)c(C)s1`, the GI50 is inactive: 68.5 µM.
`O=C(CC1C=Cc2ccccc2N1C(=O)c1ccccc1)c1ccccc1` (configuration not stated): the GI50 was inactive: 19 µM.
As for `c1ccc2c[n+](CCCC[n+]3ccc4ccccc4c3)ccc2c1`, the figure is inactive: > 100 µM.
Then `CC(C)Cn1cnc2c(Sc3c([N+](=O)[O-])ncn3C)nc(N)nc21`, with inactive: 97.7 µM; and `Cc1cccc2[s+]snc12`, with inactive: > 100 µM; and `O=C1c2cccnc2C(=O)C2C3C=CC(C3)C12` (configuration not stated), with inactive: 27.1 µM.
Take `O=c1oc2ccccc2cc1-c1cc2ccccn2c1`: the GI50 is inactive: > 100 µM.
For `CCC(=O)Nc1ccc(NCC(=O)Nc2ccc(Cl)cc2)cc1`, the GI50 was inactive: 13.5 µM.
`Cc1cccc(N2C(=O)C3c4[nH]c5ccc(C)cc5c4C4CCC(C(C)(C)C)CC4C3C2=O)c1` (configuration not stated): the GI50 is inactive: 36.8 µM.
In the case of `CNC(=O)CNC(=O)N(C[C@@H]1CCCN1C(=O)[C@H](CC(C)C)NC(=O)OC(C)(C)C)C(C)C`, the GI50 is inactive: > 100 µM.
As for `COC(=O)/C=C(\C)CC/C=C(\C)CCC1OC1(C)C` (configuration not stated), the GI50 was inactive: 43 µM.
For the compound `CSc1nc2c(c(=O)[nH]1)N=C(c1ccccc1)CC(c1ccccc1)N2` (configuration not stated), the GI50 is inactive: 60.4 µM.
`CC1(C)C2C/C(=C\c3ccccc3)C(=O)C1C2` (configuration not stated): the GI50 was inactive: > 100 µM.
In the case of `CCOC(=O)/C(Br)=C1/OC(=O)c2ccccc2-c2ccccc21.CCOC(=O)/C(Br)=C1\OC(=O)c2ccccc2-c2ccccc21`, the GI50 is inactive: 22.2 µM.
Regarding `CC(C)/C(Cl)=N\OC(=O)Nc1cccc(Cl)c1`, the GI50 was inactive: 11.9 µM.
For `O=C(O)c1cc(O)c2c(c1)C([C@@H]1c3cccc(O)c3C(=O)c3c(O)cc(C(=O)O)cc31)c1cccc(O)c1C2=O` (some centres not stated), the GI50 was inactive: 63.7 µM.
For `O=C1Nc2ccc(Br)cc2/C1=N/Nc1ccccc1[N+](=O)[O-]`, the GI50 was inactive: 22.2 µM.
Then `O=C(c1c(O)cc(O)cc1O)C1Cc2ccccc21` (configuration not stated), with inactive: > 100 µM; and `CSc1nc(C)cc(Nc2ccc(O)c(CN3CCCCC3)c2)n1`, with inactive: 35.1 µM.
Regarding `COC(=O)/C=C\[C@H]1[C@H](C)N1S(=O)(=O)c1ccc(C)cc1` (some centres not stated), the GI50 is inactive: > 100 µM.
As for `CSc1ncc2c(n1)C(C#N)C1Sc3ccccc3N1C2=O` (configuration not stated), the figure is inactive: > 100 µM; as for `Cc1ccc(C2=C(c3ccccc3)C(=O)C(c3ccccc3)=C2c2ccc(C)cc2)cc1`, inactive: 78.2 µM; as for `O=C(CO)CC(=O)C(=O)Nc1ccccc1`, inactive: > 100 µM.
Consider `CC(C)(C)c1ccc(Oc2ccc(C#N)c(C#N)c2)c(C(C)(C)C)c1`, for which the GI50 is inactive: > 100 µM.
As for `O=C1C(CN2CCOCC2)CCCC1CN1CCOCC1` (configuration not stated), the GI50 was inactive: 13.9 µM.
On to `CCc1cccc(C(C)CC)c1NC(=O)CC1C(=O)Nc2ccccc2[S+]1[O-]` (configuration not stated), for which the GI50 is inactive: 89.9 µM.
Then `Nc1nc(Cl)cc(NCC2(CO)CCC(O)C2)n1` (configuration not stated), with inactive: > 100 µM; and `CCCCCCCCCC1CC(=O)OC23CCCC(=O)C12O3` (configuration not stated), with inactive: > 100 µM.
In the case of `COC(=O)C(=O)C(C(=O)C(=O)Nc1ccc(Cl)c(Cl)c1)c1nc2ccc(C(=O)c3ccccc3)cc2nc1O` (configuration not stated), the GI50 was inactive: 66.4 µM.
Then `O=C1CSC2(CC(/C=C/c3ccccc3[N+](=O)[O-])=NN2c2cccc(S(=O)(=O)O)c2)N1c1nc2ccccc2s1` (configuration not stated), with inactive: 25.5 µM; and `COC1=CC(=O)N(C(=O)C2CSC(C(CO)NC(=O)c3csc(/C=N/O)n3)=N2)C1` (configuration not stated), with inactive: > 100 µM; and `CCC(=O)c1cc(C(=O)C(=S)SC)cc(C(=O)C(=S)SC)c1`, with inactive: > 100 µM.
`COC(=O)C1SC[C@H]2C(=O)N(c3ccccc3)C(=O)N12` (some centres not stated): the GI50 was inactive: > 100 µM.
On to `CN(C)CCS/C(=N\c1ccccc1)N1C=COC=C1`, for which the GI50 is inactive: 53.3 µM.
Then `CCOC(=O)c1c(OCC)[nH]c(=O)c(C(c2ccc(F)cc2)c2c(O)c(C(=O)OCC)c(OCC)[nH]c2=O)c1O`, with inactive: 16.9 µM.
Then `COc1ccc2occ(CCC(=O)O)c2c1`, with inactive: > 100 µM; and `CC[C@H]1C=CCC[C@@]2(C[C@@H]3CC[C@H]4[C@H](C(=O)OCCCCCCCCCCCCCCCC(=O)N(CCCN)C[C@@H](O)CCN)[C@]5(CCC[C@@H](C)O5)NC(=[N+]34)N2)O1`, with inactive: 1.17 µM; and `COc1ccc(NC(=O)C2=C(SC)C(=O)N=C2N)cc1`, with inactive: > 100 µM.
Then `C=Cc1c(C)c2cc3nc(c4c5[nH]c(cc6nc(cc1[nH]2)C(C)=C6CC)c(C)c5C(=O)C4C(=O)OC)C(CCC(=O)OC)C3C` (configuration not stated), with inactive: > 100 µM.
On to `COC(=O)C1=C(c2cc(OC)c(OC)c(OC)c2)OC(c2cc(OC)c(OC)c(OC)c2)C1COC(C)=O` (configuration not stated), for which the GI50 was inactive: 49.7 µM.
For the compound `CCN(CC)CCCNC(=O)Cc1ccccc1Nc1c(Cl)cccc1Cl`, the GI50 was inactive: 15 µM.
Turning to `COc1ccc(/C=C2\N=C(N3CCCC(CO)C3)NC2=O)cc1` (configuration not stated), the GI50 was inactive: > 100 µM.
As for `CC(C)c1cc2c(cc1S(=O)(=O)O)[C@@]1(C)CCC[C@@](C)(C(=O)O)C1CC2` (some centres not stated), the figure is inactive: > 100 µM; as for `CCN(CC)CCC(=O)c1ccc(Oc2ccc(C)cc2)cc1`, inactive: 43.7 µM; as for `Cc1ccc(NC(=S)C#N)c(C)c1`, inactive: > 100 µM.
Take `Cc1c(O)c(=O)ccn1CCc1c[nH]c2ccccc12`: the GI50 was inactive: 11 µM.
Then `CC(=O)NC1C(OCc2ccccc2)OC(COC(=O)CCCCCCCCCCNC(=O)CCNc2ccc([N+](=O)[O-])c3[nH]c4ccc(O)cc4c(=O)c23)C(O)C1OC(C)C(=O)N[C@H](C(=O)N[C@H](CCC(=O)O)C(N)=O)C(C)C` (some centres not stated), with inactive: > 100 µM; and `CC(C)N(C(=O)C1(C)CC1)C(C)C`, with inactive: > 100 µM.
On to `O=c1c(/C=C/c2c(O)ccc3ccccc23)nnc2sc(-c3cccc(Br)c3)nn12`, for which the GI50 was inactive: 24.4 µM.
Then `CN(C)CC1CCC/C(=C\c2ccc(N(C)C)cc2)C1=O` (configuration not stated), with inactive: 17.8 µM; and `CCOC(=O)c1c(CN2CCCC2)n(-c2ccccc2)c2cc(Br)c(OC)cc12`, with inactive: 21.2 µM; and `CCOC(=O)C(C)(C(=O)OCC)/C(Cl)=C\Cl`, with inactive: 2.16 µM.
For `O=C(c1ccc(O)cc1)C1c2c3c(cc(O)c2C(c2ccc(O)cc2)C1c1cc(O)cc(O)c1)OC(c1ccc(O)cc1)C3c1cc2c(cc1O)OC(c1ccc(O)cc1)C2c1cc(O)cc(O)c1` (configuration not stated), the GI50 was inactive: > 12.5 µM.
With `CC(O)(/C=C/c1ccccc1)P(=O)(O)c1ccccc1` (configuration not stated), the GI50 was inactive: > 100 µM.
On to `O=C(c1ccccc1)N1CCC(Nc2nccs2)O1` (configuration not stated), for which the GI50 is inactive: > 10 µM.
Then `OC[C@@H]1CC#C/C=C\C#CC[C@@H]1CO`, with inactive: > 100 µM; and `Cc1oc2ccccc2c(=O)c1Cn1nnc2ccccc21`, with inactive: > 100 µM.
`CC(C)OP(=O)(OC(C)C)C(C(F)(F)F)C(F)(F)F`: the GI50 is inactive: > 100 µM.
As for `Nc1nc(N)c2cc(-c3cc4ccccc4[nH]3)ccc2n1`, the figure is inactive: 32.1 µM; as for `O=[N+]([O-])/C(C(Cl)=C(Cl)Cl)=C(\Nc1ccccc1)n1nnc2ccccc21`, inactive: 33.9 µM.
As for `CCc1n[nH]c(=O)n1NC(=O)/C=C\C(=O)O`, the figure is inactive: > 100 µM.
Then `c1ccc(SC23C4C5C6C4C2C6C53)nc1` (configuration not stated), with inactive: > 100 µM; and `OC(C/C=N/N=C/CC(O)(C(F)(F)Cl)C(F)(F)Cl)(C(F)(F)Cl)C(F)(F)Cl`, with inactive: > 10 µM; and `COc1cc(C2SCC(=O)N2NC(=O)c2ccc(NC(C)=O)cc2)cc(OC)c1OC` (configuration not stated), with inactive: > 100 µM.
As to `COC(=O)c1cc(C)ccc1C1CN=NC12Cc1cccc(C)c1C2=O` (configuration not stated), the GI50 is inactive: 50.6 µM.
Regarding `N#Cc1ccc(C2OCC3CC=CCC3CO2)cc1` (configuration not stated), the GI50 is inactive: > 100 µM.
On to `CC(=O)OCC1OC(n2c3c(cc(C#N)c2=O)CCCCCC3)C(OC(C)=O)C(OC(C)=O)C1OC(C)=O` (configuration not stated), for which the GI50 was inactive: > 100 µM.
As for `CC(CC=O)Nc1nn2c(=O)c3ccccc3nc2s1` (configuration not stated), the figure is inactive: > 100 µM; as for `COC(=O)c1ccc(/N=N/N(C)COc2ccc([N+](=O)[O-])cc2)cc1`, inactive: > 100 µM; as for `O=C(NCCCl)N(O)C(=O)Nc1ccccc1`, inactive: > 100 µM.
For `COC(=O)NN(C(=O)OC)c1c(-c2ccccc2)nc(SC)n1N`, the GI50 was inactive: > 100 µM.
Then `CC(O)CC(=O)CO[C@H]1[C@H](O)[C@@H](O)[C@@H](O)[C@@H]2NC(=O)c3c(cc4c(c3O)OCO4)[C@H]21` (some centres not stated), with active: 0.0589 µM; and `O=C(O)CCCc1cc2c(s1)-c1cccc3cccc-2c13`, with inactive: 29 µM.
On to `CSC(=O)C[C@@]12O[C@@H]([C@@H](C)C3CCC4[C@@H]5C(O)CC6=CC(=O)C=C[C@]6(C)C5CC[C@@]43C)C[C@](C)(O1)C(C)(C)O2` (some centres not stated), for which the GI50 was inactive: 17.1 µM.
`COc1cc(C2c3cc4c(cc3[C@@H](Nc3ccc5c(c3)OCCO5)C3COC(=O)[C@H]23)OCO4)cc(OC)c1O` (some centres not stated): the GI50 is inactive: 4.05 µM.
As for `O=C1/C(=C/c2cccc([N+](=O)[O-])c2)Cc2ccccc21`, the figure is inactive: > 100 µM; as for `Cc1cnc2nc(-c3ccc(F)cc3)cc(O)c2c1`, inactive: 32.2 µM.
With `Cc1[nH]n(C2=NCCN2)c(=O)c1C`, the GI50 was inactive: > 100 µM.
In the case of `C=C1C[C@@H](O)[C@@H](Br)C(C)(C)[C@@]12C=CC(=O)CC2`, the GI50 was inactive: > 100 µM.
Turning to `c1ccc2c(CN3CCC(C4CCN(Cc5cccc6ccccc56)CC4)CC3)cccc2c1`, the GI50 is inactive: 6.95 µM.
